Results are given in words; binding and its absence hold for the method and conditions named. Binding seen in cells or lysates may run through a third protein. Some entries that bind do so weakly or less than the wild type. For part of these data: Tags and fused reporters may be left off the sequences shown. One block for each binder: values may come before it.
Tests used:
[1] = target: T1, cell division cycle 6 (CDC6), endogenous in HeLa cells (human (endogenous in HeLa)) (UniProt Q99741); test: co-IP; endogenous proteins; HeLa cells synchronized at the G1/S boundary by a double-thymidine block, lysates collected at time points after release, IP with anti-CDC6 antibody, Western blot
T1 sequence: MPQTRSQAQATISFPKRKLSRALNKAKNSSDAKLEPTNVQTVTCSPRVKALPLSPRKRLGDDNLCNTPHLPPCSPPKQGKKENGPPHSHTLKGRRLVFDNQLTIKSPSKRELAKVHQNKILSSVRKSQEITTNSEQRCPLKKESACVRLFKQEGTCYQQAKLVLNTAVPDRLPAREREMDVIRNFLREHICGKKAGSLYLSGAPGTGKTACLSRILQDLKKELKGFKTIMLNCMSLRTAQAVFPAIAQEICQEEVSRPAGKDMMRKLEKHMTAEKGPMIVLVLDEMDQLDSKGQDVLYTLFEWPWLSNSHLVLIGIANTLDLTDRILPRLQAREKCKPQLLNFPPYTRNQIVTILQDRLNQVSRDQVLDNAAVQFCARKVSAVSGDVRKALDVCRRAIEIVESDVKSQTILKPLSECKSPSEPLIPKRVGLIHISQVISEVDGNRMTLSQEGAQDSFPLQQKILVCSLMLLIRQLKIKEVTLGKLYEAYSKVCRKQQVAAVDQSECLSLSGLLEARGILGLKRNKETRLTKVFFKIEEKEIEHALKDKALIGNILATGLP

[2] = target: T2, cell division cycle 6 (CDC6), endogenous in HEK293 cells (human (endogenous in HEK293)) (UniProt Q99741); test: co-IP; endogenous proteins; HEK293 whole-cell lysates, IP with control IgG, anti-OTUD6A or anti-CDC6 antibody, Western blot
T2 sequence: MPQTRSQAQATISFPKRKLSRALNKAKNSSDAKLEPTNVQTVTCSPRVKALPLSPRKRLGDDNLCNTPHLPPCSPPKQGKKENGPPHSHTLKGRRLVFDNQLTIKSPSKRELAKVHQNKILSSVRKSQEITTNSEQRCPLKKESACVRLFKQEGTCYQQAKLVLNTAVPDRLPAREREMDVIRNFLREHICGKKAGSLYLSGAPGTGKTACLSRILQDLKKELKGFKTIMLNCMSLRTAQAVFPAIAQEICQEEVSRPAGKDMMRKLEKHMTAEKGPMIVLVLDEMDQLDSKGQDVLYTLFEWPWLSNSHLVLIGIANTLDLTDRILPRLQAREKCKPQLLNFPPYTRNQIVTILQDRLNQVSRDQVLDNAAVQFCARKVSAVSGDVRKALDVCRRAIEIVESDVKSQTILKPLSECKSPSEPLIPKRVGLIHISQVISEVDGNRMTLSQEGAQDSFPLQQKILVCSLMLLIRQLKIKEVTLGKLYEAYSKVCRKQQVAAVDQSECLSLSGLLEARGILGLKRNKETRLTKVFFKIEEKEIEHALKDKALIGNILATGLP

HA-YFP-C terminus-CDC6 = target: T3, HA-YFP-C terminus-CDC6 (UniProt Q99741); test: split reporter; BiFC with YN-OTUD6A and YC-CDC6 in cells, confocal images
T3 sequence: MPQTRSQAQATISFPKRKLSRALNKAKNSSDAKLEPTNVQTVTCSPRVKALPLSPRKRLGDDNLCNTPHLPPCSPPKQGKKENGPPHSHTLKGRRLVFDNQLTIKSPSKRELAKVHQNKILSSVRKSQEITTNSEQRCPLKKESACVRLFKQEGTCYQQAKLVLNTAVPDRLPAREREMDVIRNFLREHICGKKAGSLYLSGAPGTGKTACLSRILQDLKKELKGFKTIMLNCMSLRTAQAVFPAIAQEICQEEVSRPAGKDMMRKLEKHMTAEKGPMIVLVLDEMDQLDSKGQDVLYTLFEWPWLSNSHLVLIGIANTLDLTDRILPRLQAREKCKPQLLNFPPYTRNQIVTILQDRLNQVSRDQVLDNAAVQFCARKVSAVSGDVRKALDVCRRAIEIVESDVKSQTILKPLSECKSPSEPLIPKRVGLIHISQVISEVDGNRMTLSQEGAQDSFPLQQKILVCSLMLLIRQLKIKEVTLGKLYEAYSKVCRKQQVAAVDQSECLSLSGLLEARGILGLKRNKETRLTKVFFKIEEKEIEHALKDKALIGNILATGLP

- binding [1]: binds
B1: OTU domain-containing 6A (OTUD6A), endogenous in HeLa cells (enzyme, UniProt Q7L8S5 1-288)
chain: MDDPKSEQQRILRRHQRERQELQAQIRSLKNSVPKTDKTKRKQLLQDVARMEAEMAQKHRQELEKFQDDSSIESVVEDLAKMNLENRPPRSSKAHRKRERMESEERERQESIFQAEMSEHLAGFKREEEEKLAAILGARGLEMKAIPADGHCMYRAIQDQLVFSVSVEMLRCRTASYMKKHVDEFLPFFSNPETSDSFGYDDFMIYCDNIVRTTAWGGQLELRALSHVLKTPIEVIQADSPTLIIGEEYVKKPIILVYLRYAYSLGEHYNSVTPLEAGAAGGVLPRLL

- binding [2]: binds
B2: OTU domain-containing 6A (OTUD6A), endogenous in HEK293 cells (enzyme, UniProt Q7L8S5 1-288)
chain: MDDPKSEQQRILRRHQRERQELQAQIRSLKNSVPKTDKTKRKQLLQDVARMEAEMAQKHRQELEKFQDDSSIESVVEDLAKMNLENRPPRSSKAHRKRERMESEERERQESIFQAEMSEHLAGFKREEEEKLAAILGARGLEMKAIPADGHCMYRAIQDQLVFSVSVEMLRCRTASYMKKHVDEFLPFFSNPETSDSFGYDDFMIYCDNIVRTTAWGGQLELRALSHVLKTPIEVIQADSPTLIIGEEYVKKPIILVYLRYAYSLGEHYNSVTPLEAGAAGGVLPRLL

- binding (HA-YFP-C terminus-CDC6): binds
B3: Flag-YFP-N terminus-OTUD6A (enzyme, UniProt Q7L8S5 1-288)
chain: MDDPKSEQQRILRRHQRERQELQAQIRSLKNSVPKTDKTKRKQLLQDVARMEAEMAQKHRQELEKFQDDSSIESVVEDLAKMNLENRPPRSSKAHRKRERMESEERERQESIFQAEMSEHLAGFKREEEEKLAAILGARGLEMKAIPADGHCMYRAIQDQLVFSVSVEMLRCRTASYMKKHVDEFLPFFSNPETSDSFGYDDFMIYCDNIVRTTAWGGQLELRALSHVLKTPIEVIQADSPTLIIGEEYVKKPIILVYLRYAYSLGEHYNSVTPLEAGAAGGVLPRLL
